Data on 153 variants can be found in a collection of fitness landscapes (doi:10.1126/science.1257360).

The labels stand for the following.
B1: PhoQ; a variant is named by its letters at X, in order, P23837 (parent)
chain: MKKLLRLFFPLSLRVRFLLATAAVVLVLSLAYGMVALIGYSVSFDKTTFRLLRGESNLFYTLAKWENNKLHVELPENIDKQSPTMTLIYDENGQLLWAQRDVPWLMKMIQPDWLKSNGFHEIEADVNDTSLLLSGDHSIQQQLQEVREDDDDAEMTHSVAVNVYPATSRMPKLTIVVVDTIPVELKSSYMVWSWFIYVLSANLLLVIPLLWVAAWWSLRPIEALAKEVRELEEHNRELLNPATTRELTSLVRNLNRLLKSERERYDKYRTTLTDLTHSLKTPLXXLQXXLRSLRSEKMSVSDAEPVMLEQISRISQQIGYYLHRASMRGGTLLSRELHPVAPLLDNLTSALNKVYQRKGVNISLDISPEISFVGEQNDFVEVMGNVLDNACKYCLEFVEISARQTDEHLYIVVEDDGPGIPLSKREVIFDRGQRVDTLRPGQGVGLAVAREITEQYEGKIVAGESMLGGARMEVIFGRQHSAPKDE

The other results are listed elsewhere or left out.

Variants of B1 are the subject of the test. As to the kind of experiment: enrichment ratio after two sorts for PhoP signalling (ratio (wild type AVST 3.29)); higher = more functional. Particulars: with PhoP (E. coli).
With EATW, the enrichment ratio is no more than 0.25.

Take QPNG: the enrichment ratio is no more than 0.25.

With LWSQ, the enrichment ratio is no more than 0.25.

Consider HRMR, for which the enrichment ratio is no more than 0.25.

For LTDH, the enrichment ratio is no more than 0.25.

Turning to HMTQ, the enrichment ratio is no more than 0.25.

With EINR, the enrichment ratio was no more than 0.25.

With QMQF, the enrichment ratio is no more than 0.25.

As for WRPY, the enrichment ratio is no more than 0.25.

As to QRTK, the enrichment ratio is no more than 0.25.

IDVK: the enrichment ratio came out at 0.353.

With VVHF, the enrichment ratio was no more than 0.25.

Take SCFG: the enrichment ratio is no more than 0.25.

With TCGK, the enrichment ratio was no more than 0.25.

Regarding IRGN, the enrichment ratio is no more than 0.25.

For PPRW, the enrichment ratio was no more than 0.25.

YVIS: the enrichment ratio was no more than 0.25.

Turning to SWPC, the enrichment ratio was no more than 0.25.

Consider KMQY, for which the enrichment ratio was no more than 0.25.

As for VRWY, the enrichment ratio is no more than 0.25.

As for QLEL, the enrichment ratio was no more than 0.25.

With DHEL, the enrichment ratio is no more than 0.25.

Take VWAR: the enrichment ratio is no more than 0.25.

Turning to VFGG, the enrichment ratio was no more than 0.25.

As for HKYQ, the enrichment ratio is no more than 0.25.

Consider VECL, for which the enrichment ratio was 2.59.

With GKFI, the enrichment ratio came out at 0.807.

Regarding WSRQ, the enrichment ratio was no more than 0.25.

Take TLCW: the enrichment ratio was no more than 0.25.

On to EQTW, for which the enrichment ratio is no more than 0.25.

Turning to PLFP, the enrichment ratio was no more than 0.25.

In the case of QMDH, the enrichment ratio turned out to be 15.

Consider LLIH, for which the enrichment ratio was no more than 0.25.

On to TSHE, for which the enrichment ratio turned out to be 5.88.

As for NQWR, the enrichment ratio is no more than 0.25.

Take IVSM: the enrichment ratio was no more than 0.25.

Take WSAG: the enrichment ratio is no more than 0.25.

For KEQS, the enrichment ratio was no more than 0.25.

With PVGS, the enrichment ratio was no more than 0.25.

With NQPG, the enrichment ratio is no more than 0.25.

On to VKMD, for which the enrichment ratio was no more than 0.25.

Consider VSWP, for which the enrichment ratio is no more than 0.25.

For ISNP, the enrichment ratio was no more than 0.25.

For the variant TLRA, the enrichment ratio was no more than 0.25.

As for LKTV, the enrichment ratio was no more than 0.25.

For the variant YMQG, the enrichment ratio was no more than 0.25.

In the case of SNNT, the enrichment ratio was 4.52.

On to RNPS, for which the enrichment ratio was no more than 0.25.

Regarding VPMD, the enrichment ratio is no more than 0.25.

For AKGA, the enrichment ratio was no more than 0.25.

For NGYI, the enrichment ratio is no more than 0.25.

Consider WTKW, for which the enrichment ratio is no more than 0.25.

As for HDQW, the enrichment ratio is no more than 0.25.

On to GKLN, for which the enrichment ratio is no more than 0.25.

As to MRIC, the enrichment ratio is no more than 0.25.

As for GSWN, the enrichment ratio was no more than 0.25.

Regarding YLEK, the enrichment ratio is no more than 0.25.

Consider VKTH, for which the enrichment ratio is no more than 0.25.

Turning to MWHC, the enrichment ratio was no more than 0.25.

Take MSAY: the enrichment ratio worked out at 7.95.

Consider TACH, for which the enrichment ratio is 2.66.

Turning to RHWR, the enrichment ratio was no more than 0.25.

With VKYS, the enrichment ratio is no more than 0.25.

For the variant VIKA, the enrichment ratio was no more than 0.25.

Turning to TYLS, the enrichment ratio stood at 0.649.

Regarding TPRT, the enrichment ratio is no more than 0.25.

With MIFG, the enrichment ratio was no more than 0.25.

As for LTHS, the enrichment ratio is no more than 0.25.

Consider KQRP, for which the enrichment ratio is no more than 0.25.

Regarding MCGT, the enrichment ratio amounted to 4.92.

On to TIWW, for which the enrichment ratio is no more than 0.25.

Take IEFA: the enrichment ratio is no more than 0.25.

As to QLQI, the enrichment ratio is no more than 0.25.

EICL: the enrichment ratio is no more than 0.25.

Consider WGHS, for which the enrichment ratio was no more than 0.25.

Turning to DVAN, the enrichment ratio was no more than 0.25.

As for KSGY, the enrichment ratio is no more than 0.25.

As for HKEY, the enrichment ratio is no more than 0.25.

On to TSKG, for which the enrichment ratio was no more than 0.25.

With QEVQ, the enrichment ratio was no more than 0.25.

As to KFME, the enrichment ratio was no more than 0.25.

On to PYFP, for which the enrichment ratio is no more than 0.25.

Take IKKQ: the enrichment ratio is no more than 0.25.

For YEWL, the enrichment ratio is no more than 0.25.

On to TSNC, for which the enrichment ratio was 5.47.

YWDK: the enrichment ratio was no more than 0.25.

As for ITTE, the enrichment ratio was no more than 0.25.

As for DCLT, the enrichment ratio is no more than 0.25.

For the variant FCYG, the enrichment ratio was no more than 0.25.

For the variant KTGP, the enrichment ratio is no more than 0.25.

Regarding KFFM, the enrichment ratio is no more than 0.25.

RTKH: the enrichment ratio was no more than 0.25.

Consider ATYR, for which the enrichment ratio is no more than 0.25.

As to QVST, the enrichment ratio was found to be 0.685.

Turning to IQCV, the enrichment ratio was no more than 0.25.

On to STYI, for which the enrichment ratio was no more than 0.25.

In the case of IQSE, the enrichment ratio was no more than 0.25.

Turning to QQSW, the enrichment ratio is no more than 0.25.

Take HAWG: the enrichment ratio is no more than 0.25.

With LYWK, the enrichment ratio is no more than 0.25.

Take ASGC: the enrichment ratio turned out to be 2.48.

Turning to MVCR, the enrichment ratio was no more than 0.25.

Take PIMG: the enrichment ratio was no more than 0.25.

TTGS: the enrichment ratio was found to be 8.05.

For GGND, the enrichment ratio is no more than 0.25.

For the variant KTGC, the enrichment ratio was no more than 0.25.

As for AIMV, the enrichment ratio stood at 5.05.

Turning to MQTK, the enrichment ratio is no more than 0.25.

As to EMVP, the enrichment ratio was no more than 0.25.

In the case of QDSF, the enrichment ratio was no more than 0.25.

GYSQ: the enrichment ratio was no more than 0.25.

As for WGAK, the enrichment ratio is no more than 0.25.

As to QMKG, the enrichment ratio was no more than 0.25.

For the variant KGFS, the enrichment ratio is no more than 0.25.

In the case of RHPT, the enrichment ratio was no more than 0.25.

Turning to VYWL, the enrichment ratio is no more than 0.25.

For WCVS, the enrichment ratio was no more than 0.25.

As to RRAW, the enrichment ratio was no more than 0.25.

Regarding WMFR, the enrichment ratio was no more than 0.25.

As for FHVD, the enrichment ratio was no more than 0.25.

As for IYVI, the enrichment ratio is no more than 0.25.

Turning to GWGD, the enrichment ratio was no more than 0.25.

As for KVCS, the enrichment ratio is no more than 0.25.

TADG: the enrichment ratio is no more than 0.25.

Take VGFE: the enrichment ratio is no more than 0.25.

Take SECP: the enrichment ratio is no more than 0.25.

In the case of QQDN, the enrichment ratio was no more than 0.25.

On to ILQW, for which the enrichment ratio is no more than 0.25.

As to AAFH, the enrichment ratio is no more than 0.25.

Take VGHC: the enrichment ratio is no more than 0.25.

Consider SPSI, for which the enrichment ratio was no more than 0.25.

As for WPRC, the enrichment ratio is no more than 0.25.

As for AGLW, the enrichment ratio was no more than 0.25.

For TMAC, the enrichment ratio came out at 28.2.

With LSPC, the enrichment ratio is no more than 0.25.

In the case of WLLV, the enrichment ratio was no more than 0.25.

Regarding LHAY, the enrichment ratio was no more than 0.25.

Consider GEVE, for which the enrichment ratio was no more than 0.25.

With WKPY, the enrichment ratio was no more than 0.25.

On to EQYI, for which the enrichment ratio is no more than 0.25.

As to PVHW, the enrichment ratio is no more than 0.25.

With PAKW, the enrichment ratio was no more than 0.25.

As for YNNT, the enrichment ratio is no more than 0.25.

Turning to MGDI, the enrichment ratio is no more than 0.25.

Consider YEQP, for which the enrichment ratio was no more than 0.25.

NTKL: the enrichment ratio is no more than 0.25.

For NWRR, the enrichment ratio is no more than 0.25.

With LIMR, the enrichment ratio is no more than 0.25.

On to ESVQ, for which the enrichment ratio was no more than 0.25.

For EAHA, the enrichment ratio was no more than 0.25.

Regarding SWCS, the enrichment ratio was no more than 0.25.

For the variant DTKF, the enrichment ratio is no more than 0.25.

Consider QNVV, for which the enrichment ratio is no more than 0.25.
